# Assay results as given in paper PMC4336329 (PLoS ONE, 2015).
# Hit rate of the full screen: of about 310,000 compounds, about 2,200 (0.71%) showed an effect of 50% or more. The effect is printed as a negative number. The list shows a part of the results.
# Target: human ether-à-go-go-related gene (hERG) potassium channel (human, UniProt Q12809)
# Experiment: primary screen, population patch clamp on CHO cells stably expressing hERG
# human ether-à-go-go-related gene (hERG) potassium channel, sequence (Q12809 whole entry, looked up): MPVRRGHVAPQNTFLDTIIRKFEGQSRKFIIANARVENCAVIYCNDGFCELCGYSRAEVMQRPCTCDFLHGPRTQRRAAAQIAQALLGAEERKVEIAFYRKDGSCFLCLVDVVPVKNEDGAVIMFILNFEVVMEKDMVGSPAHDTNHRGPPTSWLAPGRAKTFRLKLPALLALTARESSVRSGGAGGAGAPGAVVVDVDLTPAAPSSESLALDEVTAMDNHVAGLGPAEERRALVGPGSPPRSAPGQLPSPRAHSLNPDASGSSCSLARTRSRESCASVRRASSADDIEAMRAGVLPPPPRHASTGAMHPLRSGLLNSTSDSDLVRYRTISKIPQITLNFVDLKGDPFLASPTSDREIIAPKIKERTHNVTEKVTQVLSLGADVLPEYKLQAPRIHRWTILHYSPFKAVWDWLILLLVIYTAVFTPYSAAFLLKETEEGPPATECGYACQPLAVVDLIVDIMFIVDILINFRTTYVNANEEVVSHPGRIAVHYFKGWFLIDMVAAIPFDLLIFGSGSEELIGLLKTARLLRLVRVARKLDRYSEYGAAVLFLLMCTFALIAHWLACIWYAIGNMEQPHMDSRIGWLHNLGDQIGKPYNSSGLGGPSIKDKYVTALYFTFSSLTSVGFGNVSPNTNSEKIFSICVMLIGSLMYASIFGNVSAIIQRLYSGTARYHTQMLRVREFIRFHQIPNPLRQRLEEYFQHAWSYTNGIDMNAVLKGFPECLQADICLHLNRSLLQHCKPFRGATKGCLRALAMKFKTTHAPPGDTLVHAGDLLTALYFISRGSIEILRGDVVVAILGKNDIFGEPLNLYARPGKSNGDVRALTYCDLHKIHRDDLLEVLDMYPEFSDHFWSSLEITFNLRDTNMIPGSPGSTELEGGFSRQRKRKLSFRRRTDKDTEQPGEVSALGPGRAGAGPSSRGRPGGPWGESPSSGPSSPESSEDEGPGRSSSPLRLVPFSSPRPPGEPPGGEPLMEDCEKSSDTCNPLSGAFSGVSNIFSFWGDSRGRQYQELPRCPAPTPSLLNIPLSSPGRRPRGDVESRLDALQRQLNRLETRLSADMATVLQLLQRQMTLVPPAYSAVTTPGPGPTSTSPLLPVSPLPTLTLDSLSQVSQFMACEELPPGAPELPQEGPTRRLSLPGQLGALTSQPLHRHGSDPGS
row,SMILES,"hERG current change (%, negative = inhibition) at 1uM [%]"
1,CCOc1cc(/C=C(\C#N)C(=O)Nc2cccc(C(=O)O)c2)cc(Br)c1OC(=O)c1ccc(OC)cc1,6.38
2,c1coc(CN=C2NC(=NCc3ccco3)c3ccccc32)c1,-30.1
3,COc1cccc(C2NC(=O)NC(C)=C2C(=O)Nc2cccc(C)c2C)c1 (stereo not shown),11.6
4,COCCCN1CC23C=CC(O2)C(C(=O)O)C3C1=O (stereo not shown),8.43
5,Cc1ccc(Nc2nc(CSc3nnc(-c4ccncc4)n3-c3ccccc3C)cs2)cc1,12.6
6,CCC1(C)CC(=O)N(c2ccc(F)c(Cl)c2)C(=O)C1,10.8
7,COc1ccc2c(c1)c(CC(=O)O)c(C)n2C(=O)c1ccc(Cl)cc1,15.1
8,CCN(CC(=O)Nc1c(F)cccc1F)C(=O)c1csc2c1CCCC2,10.9
9,O=C(CCc1ccccc1)NNC(=O)Nc1ccc(F)c(Cl)c1,13.5
10,CC/C(O)=C1\C(=O)CC(C)(C)CC1=NCCc1nc2ccccc2[nH]1,15.7
11,COc1cc(C(C)=O)ccc1COc1ccc(C(=O)OCC(=O)NC2CCS(=O)(=O)C2)cc1OC (stereo not shown),11.3
12,COc1ccc(OC)c(NC(=O)c2cccc(N3C(=O)C4C5C=CC(C6CC56)C4C3=O)c2)c1 (stereo not shown),18.1
13,O=c1[nH]c(=O)n(Cc2ccccc2)c2nc(-c3ccco3)cc(C(F)(F)F)c12,19.6
14,Cc1cc(=O)oc2c(CN3CCCC3)c(O)ccc12,9.13
15,COc1cc(C(F)(F)F)nc2ccc(C#CCOC(=O)Nc3ccccc3)cc12,14.4
16,CC(Oc1ccc(Cl)cc1Cl)/C(N)=N/O (stereo not shown),12.9
17,Cc1ccc(NC(=O)Cc2nnc(SCC(=O)Nc3nncs3)n2C)cc1,8.26
18,O=C1c2ccccc2S(=O)(=O)c2cc(C(=O)N3CCN(c4ncccn4)CC3)ccc21,12.8
19,COc1cc(Cl)cc(C#N)c1OCC(=O)O,12.2
20,O=C(NCCN1C(=O)S/C(=C\c2cccnc2)C1=O)c1cc(S(=O)(=O)N2CCOCC2)ccc1F,6.29
21,O=C1OCc2ccc(NC(=O)c3sccc3Cl)cc21,-0.0766
22,COc1ccc(-c2csc3nc(-c4ccc(C)cc4)oc(=O)c23)cc1OC,8.18

row,SMILES,"hERG current change (%, negative = inhibition) at 1uM [%]"
1,NS(=O)(=O)c1ccc(CCNC(=O)CCCn2ncn3c(cc4occc43)c2=O)cc1,17.2
2,COC(=O)CCN(C(=O)c1cc(OC)c(OC)c(OC)c1)c1ccccn1,12.7
3,COC(=O)c1sc(-c2cccs2)cc1NC(=O)/C=C/C(=O)O,19.7
4,COC(=O)c1scc(C)c1N/N=C(\C)c1cc(F)c(Cl)cc1F,17.3
5,Cc1ccc(NC(=O)c2cc(S(=O)(=O)NCCc3ccccc3)ccc2F)cc1Cl,7.45
6,CCC(C)Sc1nnc(NS(=O)(=O)Cc2ccccc2)s1 (stereo not shown),22.6
7,O=C(O/N=C(/c1ccccc1)c1ccncc1)c1ccc(F)cc1,6.82
8,O=c1c2ccccc2nnn1CSc1nnc(COc2ccc(Cl)cc2)n1Cc1ccco1,-13
9,CC1CC1c1ccc(/C=C(\C#N)C(=O)Nc2ccccc2Cl)o1 (stereo not shown),5.73
10,CC(C)(C)OC(=O)NCCC(=O)N/N=C/c1ccc2ncccc2c1,15.7
11,Cn1c(NC(=O)c2ccc(F)c(F)c2)cc(=O)n(C)c1=O,3.23
12,NC(=O)CSc1nnc(Cn2c(=O)sc3ccccc32)n1-c1cccc(Cl)c1,14
13,CN(C)c1ccc(/C=C/[N+](=O)[O-])cc1,4
14,Cc1cc(/C=C2/C(=N)N3C(=NC2=O)SN=C3S(C)(=O)=O)c(C)n1-c1ccc(F)cc1,27.7
15,CC1CCN(c2ccc3nnc(CCC(=O)Nc4cccc(F)c4)n3n2)CC1,2.38
16,CCN(CC)S(=O)(=O)c1ccc(N2CCCC2)c(NC(=O)C2=NN(c3ccccc3)C(=O)CC2)c1,1.57
17,N#Cc1ccccc1/C=N/Nc1nc(-c2ccccc2)c2cc(Cl)ccc2n1,-3.61
18,CN(C)CCNc1nc2c(c(=O)[nH]c(=O)n2C)n1CCOc1ccccc1,0.0662
19,CCOC(=O)c1ccc(NC(=O)COc2ccccc2CNCCO)cc1,-0.0968
20,Cc1ccnc(NC(=O)c2cccc(S(=O)(=O)N3CCOCC3)c2)c1,-5.09
21,Cc1ccc(NS(=O)(=O)c2ccc(C(=O)NCC(c3ccco3)N(C)C)cc2)cc1 (stereo not shown),5.78
